# This is one part of the list.
# Legend:
# Test in all cases: glycan array binding signal (z-score within array); higher = stronger binding
# Conditions in all cases: glycan notation: IUPAC condensed, linker removed
# Fuc(a1-2)Gal = biological target: Fuc(a1-2)Gal
# Method in brief: (§1)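 From the Consortium for Functional Glycomics database, 3228 arrays were curated, keeping only those whose protein sequence was available. Binding is given as a within-array Z-score averaged across arrays sharing a protein sequence and across linkers. Negative Z-scores can be read as non-binding.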
# Fuc(a1-2)Gal(b1-3)GalNAc = biological target: Fuc(a1-2)Gal(b1-3)GalNAc
# Method in brief: as §1
# [1] = biological target: Fuc(a1-2)Gal(b1-3)GalNAc(a1-3)[Fuc(a1-2)]Gal(b1-4)Glc
# Method in brief: as §1
# [2] = biological target: Fuc(a1-2)Gal(b1-3)GalNAc(a1-3)[Fuc(a1-2)]Gal(b1-4)GlcNAc
# Method in brief: as §1
# [3] = biological target: Fuc(a1-2)Gal(b1-3)GalNAc(b1-3)Gal
# Method in brief: as §1
# [4] = biological target: Fuc(a1-2)Gal(b1-3)GalNAc(b1-3)Gal(a1-4)Gal(b1-4)Glc
# Method in brief: as §1
# [5] = biological target: Fuc(a1-2)Gal(b1-3)GalNAc(b1-4)[Neu5Ac(a2-3)]Gal(b1-4)Glc
# Method in brief: as §1
# Fuc(a1-2)Gal(b1-3)GlcNAc = biological target: Fuc(a1-2)Gal(b1-3)GlcNAc
# Method in brief: as §1
# [6] = biological target: Fuc(a1-2)Gal(b1-3)GlcNAc(b1-2)Man(a1-3)[Fuc(a1-2)Gal(b1-3)GlcNAc(b1-2)Man(a1-6)]Man(b1-4)GlcNAc(b1-4)GlcNAc
# Method in brief: as §1
# [7] = biological target: Fuc(a1-2)Gal(b1-3)GlcNAc(b1-2)Man(a1-3)[Fuc(a1-2)Gal(b1-3)GlcNAc(b1-2)Man(a1-6)]Man(b1-4)GlcNAc(b1-4)[Fuc(a1-6)]GlcNAc
# Method in brief: as §1
# [8] = biological target: Fuc(a1-2)Gal(b1-3)GlcNAc(b1-3)Gal(b1-4)Glc
# Method in brief: as §1
# [9] = biological target: Fuc(a1-2)Gal(b1-3)GlcNAc(b1-3)GalNAc
# Method in brief: as §1
# [10] = biological target: Fuc(a1-2)Gal(b1-3)GlcNAc(b1-3)[Fuc(a1-2)Gal(b1-3)GlcNAc(b1-6)]GalNAc
# Method in brief: as §1
# [11] = biological target: Fuc(a1-2)Gal(b1-3)GlcNAc(b1-3)[Gal(b1-4)GlcNAc(b1-6)]Gal(b1-4)Glc
# Method in brief: as §1
# [12] = biological target: Fuc(a1-2)Gal(b1-3)GlcNAc(b1-3)[Gal(b1-4)[Fuc(a1-3)]GlcNAc(b1-6)]Gal(b1-4)Glc
# Method in brief: as §1
# [13] = biological target: Fuc(a1-2)Gal(b1-3)GlcNAc(b1-3)[Neu5Ac(a2-6)Gal(b1-4)GlcNAc(b1-6)]Gal(b1-4)Glc
# Method in brief: as §1
# [14] = biological target: Fuc(a1-2)Gal(b1-3)GlcNAc6S
# Method in brief: as §1
# [15] = biological target: Fuc(a1-2)Gal(b1-3)[Fuc(a1-4)]GlcNAc
# Method in brief: as §1
# [16] = biological target: Fuc(a1-2)Gal(b1-3)[Fuc(a1-4)]GlcNAc(b1-2)Man(a1-3)[Fuc(a1-2)Gal(b1-3)[Fuc(a1-4)]GlcNAc(b1-2)Man(a1-3)]Man(b1-4)GlcNAc(b1-4)GlcNAc
# Method in brief: as §1
# [17] = biological target: Fuc(a1-2)Gal(b1-3)[Fuc(a1-4)]GlcNAc(b1-2)Man(a1-3)[Fuc(a1-2)Gal(b1-3)[Fuc(a1-4)]GlcNAc(b1-2)Man(a1-6)]Man(b1-4)GlcNAc(b1-4)GlcNAc
# Method in brief: as §1
# [18] = biological target: Fuc(a1-2)Gal(b1-3)[Fuc(a1-4)]GlcNAc(b1-2)Man(a1-3)[Fuc(a1-2)Gal(b1-3)[Fuc(a1-4)]GlcNAc(b1-2)Man(a1-6)]Man(b1-4)GlcNAc(b1-4)[Fuc(a1-6)]GlcNAc(b1-4)[Fuc(a1-6)]GlcNAc
# Method in brief: as §1
# [19] = biological target: Fuc(a1-2)Gal(b1-3)[Fuc(a1-4)]GlcNAc(b1-3)[Fuc(a1-3)[Gal(b1-4)]GlcNAc(b1-6)]Gal(b1-4)Glc
# Method in brief: as §1
# [20] = biological target: Fuc(a1-2)Gal(b1-3)[Fuc(a1-4)]GlcNAc(b1-3)[Gal(b1-4)GlcNAc(b1-6)]Gal(b1-4)Glc
# Method in brief: as §1
# [21] = biological target: Fuc(a1-2)Gal(b1-4)Fuc(a1-3)]GlcNAc(b1-2)Man(a1-3)[Fuc(a1-2)Gal(b1-4)[Fuc(a1-3)]GlcNAc(b1-2)Man(a1-6)]Man(b1-4)GlcNAc(b1-4)GlcNAc
# Method in brief: as §1
# Fuc(a1-2)Gal(b1-4)Glc = biological target: Fuc(a1-2)Gal(b1-4)Glc
# Method in brief: as §1
# Fuc(a1-2)Gal(b1-4)Glc6S = biological target: Fuc(a1-2)Gal(b1-4)Glc6S
# Method in brief: as §1
# Fuc(a1-2)Gal(b1-4)GlcNAc = biological target: Fuc(a1-2)Gal(b1-4)GlcNAc
# Method in brief: as §1
# [22] = biological target: Fuc(a1-2)Gal(b1-4)GlcNAc(b1-2)Man
# Method in brief: as §1
# [23] = biological target: Fuc(a1-2)Gal(b1-4)GlcNAc(b1-2)Man(a1-3)[Fuc(a1-2)Gal(b1-4)GlcNAc(b1-2)Man(a1-6)]Man(b1-4)GlcNAc(b1-4)GlcNAc
# Method in brief: as §1
# [24] = biological target: Fuc(a1-2)Gal(b1-4)GlcNAc(b1-2)Man(a1-3)[Fuc(a1-2)Gal(b1-4)GlcNAc(b1-2)Man(a1-6)]Man(b1-4)GlcNAc(b1-4)[Fuc(a1-6)]GlcNAc
# Method in brief: as §1
binder,measurement,setting,value
MGL6A (Homo sapiens) (protein) MTRTYENFQYLENKVKVQGFKNGPLPLQSLLQRLCSGPCHLLLSLGLGLLLLVIICVVGFQNSKFQRDLVTLRTDFSNFTSNTVAEIQALTSQGSSLEETIASLKAEVEGFKQERQAVHSEMLLRVQQLVQDLKKLTCQVATLNNNGEEASTEGTCCPVNWVEHQDSCYWFSHSGMSWAEAEKYCQLKNAHLVVINSREEQNFVQKYLGSAYTWMGLSDPEGAWKWVDGTDYATGFQNWKPGQPDDWQGHGLGGGEDCAHFHPDGRWNDDVCQRPYHWVCEAGLGQTSQESH,glycan array binding signal (z-score),Fuc(a1-2)Gal,-0.271
same,glycan array binding signal (z-score),Fuc(a1-2)Gal(b1-3)GalNAc,-0.261
same,glycan array binding signal (z-score),[1],-0.26
same,glycan array binding signal (z-score),[2],-0.255
same,glycan array binding signal (z-score),[3],-0.257
same,glycan array binding signal (z-score),[4],-0.268
same,glycan array binding signal (z-score),[5],-0.086
same,glycan array binding signal (z-score),Fuc(a1-2)Gal(b1-3)GlcNAc,-0.275
same,glycan array binding signal (z-score),[6],-0.209
same,glycan array binding signal (z-score),[7],-0.246
same,glycan array binding signal (z-score),[8],-0.285
same,glycan array binding signal (z-score),[9],-0.261
same,glycan array binding signal (z-score),[10],-0.208
same,glycan array binding signal (z-score),[11],-0.266
same,glycan array binding signal (z-score),[12],-0.403
same,glycan array binding signal (z-score),[13],-0.281
same,glycan array binding signal (z-score),[14],-0.198
same,glycan array binding signal (z-score),[15],-0.287
same,glycan array binding signal (z-score),[16],-0.244
same,glycan array binding signal (z-score),[17],0.106
same,glycan array binding signal (z-score),[18],-0.257
same,glycan array binding signal (z-score),[19],-0.231
same,glycan array binding signal (z-score),[20],-0.263
same,glycan array binding signal (z-score),[21],-0.231
same,glycan array binding signal (z-score),Fuc(a1-2)Gal(b1-4)Glc,-0.282
same,glycan array binding signal (z-score),Fuc(a1-2)Gal(b1-4)Glc6S,-0.249
same,glycan array binding signal (z-score),Fuc(a1-2)Gal(b1-4)GlcNAc,-0.112
same,glycan array binding signal (z-score),[22],-0.276
same,glycan array binding signal (z-score),[23],-0.192
same,glycan array binding signal (z-score),[24],-0.241
